{"source": "the supplement of paper PMC8728848", "binders": {"B1": {"name": "Epa6 (Candida glabrata), Q6DTM7_CANGB (protein)", "chain": "MGSSHHHHHHSSGLVPRGSHMKDDYSSSLSNNNLGWTDPTEFPLGCSPNVTTPKNGLSMELYSYDYLKSGSNPCWDAAYLDPNYPRTGYKSHRLLAKVENVAGNINFYYHAPMGCTSLFDTLPQAYNYRTPLTMTNFTMLLYGYFKPKVTGYHTFTISADDLLFVNFGAGNAFDCCKRESSADDFGNYQAYAVWGSQTAKDDLTVHLDAGLYYPIRIFFNNRDNDGALSLTLKTESDPNPVIDFSDYFYSFDDTKDGCPGLVSYDTS"}}, "experiment_in_all_cases": "glycan array binding signal (z-score within array); higher = stronger binding", "settings_in_all_cases": "glycan notation: IUPAC condensed, linker removed", "key": {"[1]": {"target": "Gal(b1-3)GlcNAc(b1-6)GalNAc", "procedure,_shortened": "(§1)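 Glycan array data came from 3228 arrays in the Consortium for Functional Glycomics database, and only arrays with an available protein sequence were kept. Glycan names were put into IUPAC-condensed notation, and columns mapping to the same glycan were averaged. The binding signal is a within-array Z-score, averaged across arrays of one protein sequence run at different concentrations or buffers and across linkers. A negative Z-score can be read as non-binding.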"}, "[2]": {"target": "Gal(b1-3)GlcNAc(b1-6)[Gal(b1-3)]GalNAc", "procedure,_shortened": "as §1"}, "[3]": {"target": "Gal(b1-3)GlcNAc6S", "procedure,_shortened": "as §1"}, "[4]": {"target": "Gal(b1-3)[Fuc(a1-4)]GlcNAc", "procedure,_shortened": "as §1"}, "[5]": {"target": "Gal(b1-3)[Fuc(a1-4)]GlcNAc(b1-2)Man", "procedure,_shortened": "as §1"}, "[6]": {"target": "Gal(b1-3)[Fuc(a1-4)]GlcNAc(b1-2)Man(a1-3)[Gal(b1-3)[Fuc(a1-4)]GlcNAc(b1-2)Man(a1-6)]Man(b1-4)GlcNAc(b1-4)[Fuc(a1-6)]GlcNAc", "procedure,_shortened": "as §1"}, "[7]": {"target": "Gal(b1-3)[Fuc(a1-4)]GlcNAc(b1-3)Gal(b1-3)[Fuc(a1-4)]GlcNAc", "procedure,_shortened": "as §1"}, "[8]": {"target": "Gal(b1-3)[Fuc(a1-4)]GlcNAc(b1-3)Gal(b1-4)[Fuc(a1-3)]GlcNAc", "procedure,_shortened": "as §1"}, "[9]": {"target": "Gal(b1-3)[Fuc(a1-4)]GlcNAc(b1-6)GalNAc", "procedure,_shortened": "as §1"}, "[10]": {"target": "Gal(b1-3)[GlcNAc(b1-6)]GalNAc", "procedure,_shortened": "as §1"}, "[11]": {"target": "Gal(b1-3)[Neu5Ac(a2-6)]GalNAc", "procedure,_shortened": "as §1"}, "[12]": {"target": "Gal(b1-3)[Neu5Ac(a2-6)]GlcNAc(b1-4)Gal(b1-4)Glc", "procedure,_shortened": "as §1"}, "[13]": {"target": "Gal(b1-3)[Neu5Ac(b2-6)]GalNAc", "procedure,_shortened": "as §1"}, "[14]": {"target": "Gal(b1-4)Gal", "procedure,_shortened": "as §1"}, "[15]": {"target": "Gal(b1-4)GalNAc(a1-3)[Fuc(a1-2)]Gal(b1-4)GlcNAc", "procedure,_shortened": "as §1"}, "[16]": {"target": "Gal(b1-4)GalNAc(b1-3)[Fuc(a1-2)]Gal(b1-4)GlcNAc", "procedure,_shortened": "as §1"}, "[17]": {"target": "Gal(b1-4)Glc", "procedure,_shortened": "as §1"}, "[18]": {"target": "Gal(b1-4)Glc6S", "procedure,_shortened": "as §1"}, "[19]": {"target": "Gal(b1-4)GlcNAc", "procedure,_shortened": "as §1"}, "[20]": {"target": "Gal(b1-4)GlcNAc(a1-6)Gal(b1-4)GlcNAc", "procedure,_shortened": "as §1"}, "[21]": {"target": "Gal(b1-4)GlcNAc(b1-2)Man", "procedure,_shortened": "as §1"}, "[22]": {"target": "Gal(b1-4)GlcNAc(b1-2)Man(a1-3)Man(b1-4)GlcNAc(b1-4)GlcNAc", "procedure,_shortened": "as §1"}, "[23]": {"target": "Gal(b1-4)GlcNAc(b1-2)Man(a1-3)[Gal(b1-4)GlcNAc(b1-2)Man(a1-6)]Man(b1-4)GlcNAc(b1-4)GlcNAc", "procedure,_shortened": "as §1"}, "[24]": {"target": "Gal(b1-4)GlcNAc(b1-2)Man(a1-3)[Gal(b1-4)GlcNAc(b1-2)Man(a1-6)]Man(b1-4)GlcNAc(b1-4)[Fuc(a1-6)]GlcNAc", "procedure,_shortened": "as §1"}, "[25]": {"target": "Gal(b1-4)GlcNAc(b1-2)Man(a1-3)[Gal(b1-4)GlcNAc(b1-2)Man(a1-6)][Gal(b1-4)GlcNAc(b1-4)]Man(b1-4)GlcNAc(b1-4)[Fuc(a1-6)]GlcNAc", "procedure,_shortened": "as §1"}, "[26]": {"target": "Gal(b1-4)GlcNAc(b1-2)Man(a1-3)[Gal(b1-4)GlcNAc(b1-2)Man(a1-6)][GlcNAc(b1-4)]Man(b1-4)GlcNAc(b1-4)[Fuc(a1-6)]GlcNAc", "procedure,_shortened": "as §1"}, "[27]": {"target": "Gal(b1-4)GlcNAc(b1-2)Man(a1-3)[GlcNAc(b1-2)Man(a1-6)]Man(b1-4)GlcNAc(b1-4)GlcNAc", "procedure,_shortened": "as §1"}, "[28]": {"target": "Gal(b1-4)GlcNAc(b1-2)Man(a1-3)[GlcNAc(b1-4)][Gal(b1-4)GlcNAc(b1-2)Man(a1-6)]Man(b1-4)GlcNAc(b1-4)GlcNAc", "procedure,_shortened": "as §1"}, "[29]": {"target": "Gal(b1-4)GlcNAc(b1-2)Man(a1-3)[Man(a1-6)]Man(b1-4)GlcNAc(b1-4)GlcNAc", "procedure,_shortened": "as §1"}, "[30]": {"target": "Gal(b1-4)GlcNAc(b1-2)Man(a1-6)Man(b1-4)GlcNAc(b1-4)GlcNAc", "procedure,_shortened": "as §1"}, "[31]": {"target": "Gal(b1-4)GlcNAc(b1-2)Man(a1-6)[GlcNAc(b1-2)Man(a1-3)]Man(b1-4)GlcNAc(b1-4)GlcNAc", "procedure,_shortened": "as §1"}, "[32]": {"target": "Gal(b1-4)GlcNAc(b1-2)Man(a1-6)[Man(a1-3)]Man(b1-4)GlcNAc(b1-4)GlcNAc", "procedure,_shortened": "as §1"}, "[33]": {"target": "Gal(b1-4)GlcNAc(b1-2)[Gal(b1-4)GlcNAc(b1-4)]Man(a1-3)[Gal(b1-4)GlcNAc(b1-2)Man(a1-6)]Man(b1-4)GlcNAc(b1-4)GlcNAc", "procedure,_shortened": "as §1"}, "[34]": {"target": "Gal(b1-4)GlcNAc(b1-2)[Gal(b1-4)GlcNAc(b1-4)]Man(a1-3)[Gal(b1-4)GlcNAc(b1-2)[Gal(b1-4)GlcNAc(b1-6)]Man(a1-6)]Man(b1-4)GlcNAc(b1-4)GlcNAc", "procedure,_shortened": "as §1"}, "[35]": {"target": "Gal(b1-4)GlcNAc(b1-2)[Gal(b1-4)GlcNAc(b1-4)]Man(a1-3)[GlcNAc(b1-4)][Gal(b1-4)GlcNAc(b1-2)Man(a1-6)]Man(b1-4)GlcNAc(b1-4)GlcNAc", "procedure,_shortened": "as §1"}, "[36]": {"target": "Gal(b1-4)GlcNAc(b1-2)[Gal(b1-4)GlcNAc(b1-4)]Man(a1-3)[GlcNAc(b1-4)][Gal(b1-4)GlcNAc(b1-2)[Gal(b1-4)GlcNAc(b1-6)]Man(a1-6)]Man(b1-4)GlcNAc(b1-4)GlcNAc", "procedure,_shortened": "as §1"}, "[37]": {"target": "Gal(b1-4)GlcNAc(b1-2)[Gal(b1-4)GlcNAc(b1-6)]Man(a1-6)[Gal(b1-4)GlcNAc(b1-2)Man(a1-3)]Man(b1-4)GlcNAc(b1-4)GlcNAc", "procedure,_shortened": "as §1"}}, "note": "This is one part of the list.", "data": [{"binder": "B1", "values": [{"measurement": "glycan array binding signal (z-score)", "setting": "[1]", "result": -0.297}, {"measurement": "glycan array binding signal (z-score)", "setting": "[2]", "result": 0.455}, {"measurement": "glycan array binding signal (z-score)", "setting": "[3]", "result": -0.208}, {"measurement": "glycan array binding signal (z-score)", "setting": "[4]", "result": -0.298}, {"measurement": "glycan array binding signal (z-score)", "setting": "[5]", "result": -0.112}, {"measurement": "glycan array binding signal (z-score)", "setting": "[6]", "result": -0.266}, {"measurement": "glycan array binding signal (z-score)", "setting": "[7]", "result": -0.27}, {"measurement": "glycan array binding signal (z-score)", "setting": "[8]", "result": -0.336}, {"measurement": "glycan array binding signal (z-score)", "setting": "[9]", "result": -0.2}, {"measurement": "glycan array binding signal (z-score)", "setting": "[10]", "result": 0.49}, {"measurement": "glycan array binding signal (z-score)", "setting": "[11]", "result": 0.362}, {"measurement": "glycan array binding signal (z-score)", "setting": "[12]", "result": -0.241}, {"measurement": "glycan array binding signal (z-score)", "setting": "[13]", "result": 0.06}, {"measurement": "glycan array binding signal (z-score)", "setting": "[14]", "result": -0.293}, {"measurement": "glycan array binding signal (z-score)", "setting": "[15]", "result": -0.251}, {"measurement": "glycan array binding signal (z-score)", "setting": "[16]", "result": -0.245}, {"measurement": "glycan array binding signal (z-score)", "setting": "[17]", "result": -0.274}, {"measurement": "glycan array binding signal (z-score)", "setting": "[18]", "result": -0.164}, {"measurement": "glycan array binding signal (z-score)", "setting": "[19]", "result": -0.209}, {"measurement": "glycan array binding signal (z-score)", "setting": "[20]", "result": 0.348}, {"measurement": "glycan array binding signal (z-score)", "setting": "[21]", "result": -0.283}, {"measurement": "glycan array binding signal (z-score)", "setting": "[22]", "result": -0.298}, {"measurement": "glycan array binding signal (z-score)", "setting": "[23]", "result": -0.206}, {"measurement": "glycan array binding signal (z-score)", "setting": "[24]", "result": -0.184}, {"measurement": "glycan array binding signal (z-score)", "setting": "[25]", "result": -0.313}, {"measurement": "glycan array binding signal (z-score)", "setting": "[26]", "result": -0.244}, {"measurement": "glycan array binding signal (z-score)", "setting": "[27]", "result": -0.23}, {"measurement": "glycan array binding signal (z-score)", "setting": "[28]", "result": -0.277}, {"measurement": "glycan array binding signal (z-score)", "setting": "[29]", "result": -0.239}, {"measurement": "glycan array binding signal (z-score)", "setting": "[30]", "result": -0.258}, {"measurement": "glycan array binding signal (z-score)", "setting": "[31]", "result": -0.285}, {"measurement": "glycan array binding signal (z-score)", "setting": "[32]", "result": -0.292}, {"measurement": "glycan array binding signal (z-score)", "setting": "[33]", "result": -0.166}, {"measurement": "glycan array binding signal (z-score)", "setting": "[34]", "result": -0.094}, {"measurement": "glycan array binding signal (z-score)", "setting": "[35]", "result": -0.227}, {"measurement": "glycan array binding signal (z-score)", "setting": "[36]", "result": -0.145}, {"measurement": "glycan array binding signal (z-score)", "setting": "[37]", "result": -0.198}]}]}
